# About 6,400 (1.6%) of roughly 410,000 compounds were called active. The inconclusive results got no clear call from the source; some entries with a clear call stand among them for comparison. Calls follow the shape of the dose curve; as a rule, active = well fitted inhibition curve with a large enough effect; inconclusive = small, poorly fitted or top-dose-only effect; inactive = no such curve, though single readings can be large or run the other way. No potency is given beside an inconclusive call; the fits are too rough.
# Target: Glucagon-like peptide 1 receptor (Homo sapiens) (UniProt P43220)
# Test: qHTS of GLP-1 Receptor Inverse Agonists (Inhibition Mode); also: nearly all actives have a fitted effect of over 55% in size
# Conditions: HEK293 GLP-1R CRE-luciferase, luminescence, 24 h, GLP-1R form is constitutively active; activity change, negative = inhibition: at 38.3 µM (top of the series) unless noted
# Outline: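 HEK293 cells stably co-expressing a cAMP-responsive luciferase reporter and constitutively active GLP-1R were seeded, incubated 12 h, then exposed to compounds for 24 h at 37 C. Luminescence was read 12 min after detection reagent; inverse agonists lower signal.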
# % is scaled to controls: 0 for no effect and ±100 for the full control effect; potency is read from the fitted curve at half-maximal effect; tags tell the direction and shape of the fitted curve.
# UniProt P43220, sequence (P43220 whole entry, looked up): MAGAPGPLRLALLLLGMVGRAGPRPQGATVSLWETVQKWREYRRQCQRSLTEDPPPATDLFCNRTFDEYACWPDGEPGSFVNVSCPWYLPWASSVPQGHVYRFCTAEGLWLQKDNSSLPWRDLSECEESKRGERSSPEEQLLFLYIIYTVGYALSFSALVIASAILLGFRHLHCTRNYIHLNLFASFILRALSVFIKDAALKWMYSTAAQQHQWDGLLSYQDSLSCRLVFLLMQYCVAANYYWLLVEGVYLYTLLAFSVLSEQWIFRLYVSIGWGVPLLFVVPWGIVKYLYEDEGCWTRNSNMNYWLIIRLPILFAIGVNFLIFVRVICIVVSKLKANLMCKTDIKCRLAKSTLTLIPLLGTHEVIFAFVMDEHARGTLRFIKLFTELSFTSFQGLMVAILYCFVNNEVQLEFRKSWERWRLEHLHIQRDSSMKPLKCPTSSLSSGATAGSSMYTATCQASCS
SMILES,Potency,"activity change, negative = inhibition"
O=C(NCCc1ccccc1Cl)c1ccc2c(c1)nc1n2CCOC1,"inconclusive [inhibitor, single point]",
CSc1cnn(Cc2ccccc2)c(=O)c1SCc1ccccc1,"inconclusive [inhibitor, single point]",
CCOC(=O)Cc1csc(NC(=O)c2cc3c(s2)CCCC3)n1,"inconclusive [inhibitor, single point]",
O=C(Cc1cccs1)NC(c1ccccc1)c1ccccc1,"inconclusive [inhibitor, single point]",
Cc1ccc(NC(=O)CN(C)Cc2c(O)ccc3ccccc23)cc1,"inconclusive [inhibitor, single point]",
O=C(CSc1nnc(-c2ccccc2)n1-c1ccccc1)c1cccs1,"inconclusive [inhibitor, full curve, poor fit]",
CCN(CC)S(=O)(=O)c1ccc(NN=C2CCN(C)CC2)c([N+](=O)[O-])c1,"inconclusive [inhibitor, full curve, poor fit]",
N/C(=N\c1nc2ccccc2o1)NC(=O)c1ccccc1Br,"inconclusive [inhibitor, single point]",
C=CCn1c(-c2csc3c2CCC(C)C3)n[nH]c1=S (stereo unspecified),"inconclusive [inhibitor, partial curve, poor fit]",
CCOC(=O)C1=C(N)OC2=C(C(=O)CC(C)(C)C2)C1c1cccs1 (stereo unspecified),"inconclusive [inhibitor, full curve, poor fit]",
Cc1csc(NC(C)c2nc3cc(C(F)(F)F)ccc3n2CCCO)n1 (stereo unspecified),inactive,
Cc1cc(C)nc(-n2nc(C)cc2NC(=O)CN2CCCC2)n1,"inconclusive [inhibitor, single point]",
COc1ccc(CCNC(=S)NC2CCN(Cc3ccccc3)CC2)cc1,"inconclusive [inhibitor, partial curve, poor fit]",
CCN(CC)CCN1C(=O)C2C(C(=O)Nc3ccc(C(C)C)cc3)C3C=CC2(O3)C1C(=O)NC1CCCCC1 (stereo unspecified),"inconclusive [inhibitor, partial curve]",
Cc1cc(N(C)Cc2ccccc2)nc2cc(O)ccc12,,inconclusive: -56.2% [inhibitor]
Cc1ccc(S(=O)(=O)N2CCCCC2)cc1NC(=O)c1cc2ccccc2o1,"inconclusive [inhibitor, single point]",
CSCc1cc(N(C)c2ccccc2)nc(-c2ccccn2)n1,"inconclusive [inhibitor, full curve, poor fit]",
O=C(Nc1nnc(-c2ccco2)o1)c1ccc2ccccc2c1,"inconclusive [inhibitor, single point]",
CC(C)OCCCNC(=S)N1CCC(C(=O)c2ccc(Cl)cc2)CC1,"inconclusive [inhibitor, partial curve, poor fit]",
O=C(c1ccccc1Br)N1CCc2c([nH]c3ccccc23)C1,"inconclusive [inhibitor, single point]",
O=C(CNC(=O)c1ccco1)N/N=C/c1ccc(C(=O)O)cc1,inactive,

SMILES,Potency,"activity change, negative = inhibition"
CCC1(c2ccccc2)NC(=O)N(CC(=O)Nc2ccc(N3CCCC3)cc2C)C1=O (stereo unspecified),"inconclusive [inhibitor, single point]",
O=C(O)C1Nc2c(C(=O)N3CCOCC3)cccc2C2C=CCC12 (stereo unspecified),inactive,
O=C(COc1ccccc1)n1nc(-c2ccc(Cl)cc2)nc1NCc1ccco1,"inconclusive [inhibitor, single point]",
C/C(=N\Nc1ccccn1)c1ccc(C(C)C)cc1,"inconclusive [inhibitor, single point]",
N#C/C(=C(/O)c1ccco1)c1nc2ccccc2s1,inactive,
CCCCn1cc2c(c1-c1ccccc1Br)c(=O)n(C)c(=O)n2C,inactive,
CCCCn1nnc(NC(=S)NC(=O)c2ccc(-c3cccc(Cl)c3Cl)o2)n1,"inconclusive [inhibitor, single point]",
Cc1ccc(C)c(OCC(=O)Nc2cc(NC(=O)COc3cc(C)ccc3C)cc(C(=O)O)c2)c1,"inconclusive [inhibitor, partial curve, poor fit]",
Cn1cc(CN2CCCC(C(=O)c3nccn3C)C2)c(-c2cccc(Cl)c2)n1 (stereo unspecified),"inconclusive [inhibitor, partial curve, poor fit]",
COc1ccc(-c2ccccc2NC(=O)C2CCCN(Cc3ccco3)C2)cc1 (stereo unspecified),"inconclusive [inhibitor, partial curve, poor fit]",
COc1ccccc1C(=O)Nc1ccc(C)cc1C(=O)c1ccccc1,"inconclusive [inhibitor, partial curve, poor fit]",
CCCCSc1nc(C)cc(SCC(=O)N/N=C/c2ccccc2)n1,"inconclusive [inhibitor, partial curve, poor fit]",
Cc1cccc(-c2onc3ccc(C(=O)/C=C/N(C)C)cc23)c1,"inconclusive [inhibitor, partial curve, poor fit]",
O=C1Nc2c(Br)cccc2C1=O,inactive,
COc1ccccc1NS(=O)(=O)c1cccc(C(=O)N2CCCCCC2)c1,"inconclusive [inhibitor, single point]",
O=c1oc2ccccc2c(NC2CCCCC2)c1NS(=O)(=O)c1ccc(Br)cc1,"inconclusive [inhibitor, partial curve, poor fit]",
O=C(CN1C2CCCC1CC(NC(=O)c1ccco1)C2)Nc1ccccc1 (stereo unspecified),"inconclusive [inhibitor, single point]",
Cc1ccc(CSc2ncnc3c2cnn3Cc2ccccc2)cc1,"inconclusive [inhibitor, partial curve, poor fit]",
Fc1ccc(/C=C\c2nccc3c2[nH]c2ccccc23)cc1,"inconclusive [inhibitor, partial curve, poor fit]",
COC(=O)C1=C(C)Nc2ncnn2C1c1ccccn1 (stereo unspecified),inactive,
